Experimental data reported in the supplement of paper PMC11417369.
± gives the standard deviation of the averaged measurements. The list shows a part of the results.

Tested on: PfAP2-G AP2 domain (GST-tagged)
Assay: gcPBM binding intensity (ln(normalized median fluorescence intensity)); higher = stronger DNA binding
Procedure, shortened: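 Plasmodium falciparum DNA-binding domains carrying a GST tag were expressed in E. coli and applied for 1 h, at about 25 μg on average, to an Agilent 4 × 180k array. The array held primer-extended double-stranded 36-bp intergenic genomic probes together with negative controls, and binding took place in 1× PBS with 1% milk, 0.2 mg/ml BSA, 0.5% salmon testes DNA and 0.03% Triton X-100. An Alexa488 anti-GST antibody detected bound protein, and the array was scanned at 488 nm. Binding intensity is taken as the highest Masliner-normalised natural-log median intensity across replicate spots of either probe orientation.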

Row | Sequence | gcPBM binding intensity (ln)
1 | GGTTGTATAAGTTTTTGTACATATATATATATATAT [XGTACX_site7487] | 10.9 ± 0.47
2 | TTCAAGGTTTTAGATTGTACAATTATTATATATATA [XGTACX_site8982] | 10.9 ± 0.43
3 | ATAAAAGATATTTTTACACACTTTTGATGAGATCGT [CACACA_site3053] | 10.08 ± 0.057
4 | AAGTATAAAAAAAGGCGTACAAAAAAAAAAAAAAAA [XGTACX_site7309] | 11.7 ± 0.9
5 | TTTTTCATTAATACAAGTACAAAATGATGTTGACAT [XGTACX_site1475] | 10.9 ± 0.57
6 | TAATAAGAAATAACAGGTACACATATATAAATATTA [XGTACX_site2976] | 11.1 ± 0.66
7 | ATATGTAGATGATATTATTACTTTTCAAAAATTCAA [CACACA_negctrl_site933] | 9.835 ± 0.078
8 | ACTATTTAGTCTGGTGGTACTTTATATATAATTTCT [XGTACX_site5618] | 11.1 ± 0.5
9 | ATATGTGTATGTGCGTGTACATATCTATACAGTTGT [XGTACX_site6540] | 11.3 ± 0.81
10 | TTTTATCTTTTTTTATTTTAATGTATTATTTTTATG [XGTACX_negctrl_site24] | 9.79 ± 0.042
11 | ATTATCATAATGTTCACACATATGGTATATATAGAT [CACACA_site6113] | 10.18 ± 0.014
12 | TTTTTGTAAAAACACACACACAAACAGAAAAAATAA [CACACA_site2076] | 10.4 ± 0.28
13 | TGTGCCCAAAATTATGCACACACCTAAAATTAATTT [CACACA_site2914] | 10.3 ± 0.22
14 | ATGGTAGTTCTCCATGCATGCCTTTTTATTATCATA [TGCATGCA_site681] | 9.89 ± 0.2
15 | ATACTTTAAAATAATACACACATGGAAAATAAAATT [CACACA_site697] | 10.3 ± 0.17
16 | AAGACAAATATGTATTGTACGAACGCTTTTTAATTA [XGTACX_site1961] | 10.8 ± 0.44
17 | AAAAAAAAATAAAAAAGTACAGGTAAATATATATAT [XGTACX_site5812] | 11.5 ± 1.2
18 | AAAAAAAAAAAATATATATATATATATATAATATTT [GTGCAC_negctrl_site678] | 9.43 ± 0.099
19 | GAATAAATAAAAATATGTACATAAATATATATATAT [XGTACX_site8858] | 11.4 ± 0.71

Row | Sequence | gcPBM binding intensity (ln)
20 | ATAAAAGTTTAATATTGTACGAACATGCGTTTCTAA [XGTACX_site1487] | 10.8 ± 0.49
21 | TTTATAAAATATCTTTCACACATTACTATGTATTAT [CACACA_site5148] | 9.825 ± 0.092
22 | TTCTTAAAAAATCAAACACACATATATATATACATA [CACACA_site2296] | 9.91 ± 0.12
23 | ATAAATAGAATAAAATGTACATGTAATACATATATA [XGTACX_site5475] | 10.9 ± 0.43
24 | TTTTATTATTAAACATGTACCCATATTATTGTTATG [XGTACX_site5563] | 11.2 ± 0.56
25 | AAAAAAAAAAAAAAAACACACAATTGAATTATTAAG [CACACA_site2864] | 10.3 ± 0.29
26 | AAATTTGGTGAAGGATGTACTTTACCTAATACTTGT [XGTACX_site4825] | 11 ± 0.62
27 | TATATATATTGTTATTGTACACAAATATAGGAAATA [XGTACX_site7110] | 11.4 ± 0.87
28 | AAAACAAAAAAATTTTGTACGAAACAATACTGTAAG [XGTACX_site7992] | 10.6 ± 0.29
29 | TTTTTTTTTGGGTGTACACATGAATATATATTTTTT [CACACA_site5254] | 11.7 ± 0.95
30 | AAAAAAATATATTCCTAATTTATGATTAAAAGGAAT [CACACA_negctrl_site751] | 9.52 ± 0.16
31 | ATAAATTAAACAAACACACACGTTCTTTTATTTACT [CACACA_site4556] | 9.985 ± 0.049
32 | AGAATTATATCATGGTGTACTTATTTGTTTATTTCT [XGTACX_site5795] | 11.6 ± 1
33 | AACATTATCAAATAAACCATAAATCAATTCAATATG [CACACA_negctrl_site696] | 9.945 ± 0.092
34 | AAACGTTTATTTTATTGTACATATGAAAAATGCTTC [XGTACX_site6896] | 11 ± 0.69
35 | TTGTATAAAAAACTAAAAAATATAAAATAATAAGTG [CACACA_negctrl_site1704] | 10.1 ± 0.13
36 | ATATTTTTTTTTTTCACACACATTTAGATTGTATTA [CACACA_site3137] | 10 ± 0.11
37 | AAAAAAAAAAAAAATTGTACGGATTCTTTTTTTTTT [XGTACX_site2898] | 11.1 ± 0.55
38 | TATATTTATATATATACACACATAATAAAAAATATA [CACACA_site844] | 9.9 ± 0.11

Row | Sequence | gcPBM binding intensity (ln)
39 | TTGTTTTGTAATAAAAAAAAAATAATATAATATAAT [XGTACX_negctrl_site300] | 9.78 ± 0.11
40 | CGTAATAATTAATGTTGTACCCACCAAAAAAATTAA [XGTACX_site8592] | 11.3 ± 0.93
41 | ATTACATTTTTGTTTTGTACATATATTTTATAAACA [XGTACX_site494] | 11.1 ± 0.56
42 | TATAAAAAAAATAAAATAAAATAAAATAGAAAAATA [TGCATGCA_negctrl_site109] | 9.78 ± 0.4
43 | GAAATATTGAAACACACACACAAACATATATATATA [CACACA_site1911] | 10.1 ± 0.35
44 | TTTATAGTTTTAAACAAAGTAATACAAATGTATATA [CACACA_negctrl_site1716] | 9.77 ± 0.12
45 | GAAAAATTAAAATGTGGTACAATAAAATTTTATTCA [XGTACX_site5030] | 11.4 ± 0.98
46 | ATATTTATACTATACACACCCAATTTAAAAAAAAAT [CACACA_site1163] | 10.2 ± 0.11
47 | AATTTATTAATACAAAGTACTTTCTAATATGAATTT [XGTACX_site8013] | 10.8 ± 0.49
48 | TTATTGCGCACAATTTGTACATATATATATATAGAA [XGTACX_site7573] | 11 ± 0.54
49 | GTAAGAAACAGACACACACACATATAAATATAAATA [CACACA_site6515] | 10.2 ± 0.32
50 | TATTGAAAAAGTGGAAAAAAGTACATCATACGGGAA [CACACA_negctrl_site1091] | 11.4 ± 0.73
51 | TAACAAAGTAAAAGAACATGCAAACACGCACACAGA [TGCATGCA_site374] | 10.4 ± 0.13
52 | GGGGAAAAAGCAGGTTGTACAGTGATGTCCATATAA [XGTACX_site7606] | 11.5 ± 0.91
53 | TAAATCACAAAATTATGTACTAAGAAGGAGCAACAT [XGTACX_site6742] | 10.9 ± 0.62
54 | TATACCTTAATATACACACATACATATATATATATA [CACACA_site1339] | 10 ± 0.17
55 | TATATACATTTTTATGTGCACATTTTATTTTTAAAT | 10.8 ± 0.45
56 | TTTTAATTTAAAAATTAATTTATATATATATATATA [TGCATGCA_negctrl_site447] | 9.73 ± 0.16
